# Test results taken from PubChem BioAssay AID686978 (National Center for Advancing Translational Sciences (NCATS), 2013).
# Out of some 420,000 compounds screened, about 64,000 (15%) were called active. The inconclusive results got no clear call from the source; some entries with a clear call stand among them for comparison. The call rests on the fitted dose curve; in most records, active means well fitted inhibition curve with a large enough effect; inconclusive means small, poorly fitted or top-dose-only effect; inactive means flat fitted curve, though single readings scatter. Potencies of inconclusive entries are left out as doubtful fits.
# Test: qHTS for Inhibitors of human tyrosyl-DNA phosphodiesterase 1 (TDP1): qHTS in cells in absence of CPT; further: nearly all actives have a fitted effect of over 55% in size
# Settings: DT40 Tdp1-/- hTDP1 cells, no CPT, ATP luminescence, 48 h; activity change, negative = growth inhibition: at 46.2 µM (top of the series) unless noted
# Method in brief: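 Chicken DT40 Tdp1-/- cells complemented with human TDP1, screened without camptothecin (DMSO vehicle only), 400 cells/well. Compounds pin-transferred, cells incubated at 37 °C for at least 48 hr. Growth read as ATP-dependent luminescence (CellTiter-Glo, 30 min at RT).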
# On the % scale 0 is the no-effect control and ±100 the full control effect; potency means the concentration at half of the fitted maximal effect; tags describe the fitted curve by direction and shape.
SMILES,Potency,"activity change, negative = growth inhibition"
CSc1cccc(-n2nnc(-c3nsc(NC(=O)c4cccs4)n3)c2C)c1,"inconclusive [inhibitor, partial curve]",
COC(=O)c1cc(OC)c(OC)cc1NC(=O)c1ccco1,"inconclusive [inhibitor, single point]",
CCCCn1c(SCC(=O)NNC(=O)c2ccccc2)n[nH]c1=O,,inactive: -6.25%
Cc1ccc(C2(C)NC(=O)N(CC(=O)c3ccc(Cl)s3)C2=O)cc1 (centres undefined),"inconclusive [inhibitor, partial curve]",
CCn1c(SCC(=O)Nc2ccc3c(c2)c2ccccc2n3CC)nnc1-c1cnccn1,"inconclusive [inhibitor, single point]",
COc1cc2c(C(=O)N3CCN(Cc4ccc5c(c4)OCO5)CC3)cn(C)c(=O)c2cc1OC,,inconclusive: -31.6% [inhibitor]
COc1ccc(Br)cc1CNC(=O)Cn1nc(C)n2c(cc3cc(F)ccc32)c1=O,"inconclusive [inhibitor, single point]",
CCOC(=O)c1cccc(-c2ccc(C=O)o2)c1,"inconclusive [inhibitor, single point]",
COc1ccc(C(C(=O)NC2CCCCC2)N(CC2CCCO2)C(=O)CCCC(=O)Nc2ccccn2)cc1 (centres undefined),,inactive: -19.2%
C=CCn1c(SCCN2CCCC2)nc2c([nH]c3ccccc32)c1=O,,inactive: -51.1%
Cc1ccc(S(=O)(=O)Oc2ccc3c(c2)O/C(=C\c2cccnc2)C3=O)cc1,active: 20.6 µM,
Cc1cc2nc(C3CCN(Cc4nnnn4Cc4cccs4)CC3)[nH]c2cc1C,active: 6.31 µM,
Cc1c(Br)c([N+](=O)[O-])nn1CCCC(=O)Nc1sc2c(c1C#N)CCC2,active: 16.4 µM,
O=C(Nc1cnn(Cc2ccc(Cl)cc2Cl)c1)c1noc2c1CCCC2,"inconclusive [inhibitor, single point]",
CCc1onc(C)c1C(=O)Nc1cc(C)ccc1OC,"inconclusive [inhibitor, partial curve]",
Cc1cc(C)cc(Cn2c3ccc(NC(=O)NCCc4cccs4)cc3c(=O)n2C)c1,"inconclusive [inhibitor, single point]",
COc1ccc(-n2c(C)nc3c(cnn3-c3ccc(C)c(C)c3)c2=O)cc1Cl,"inconclusive [inhibitor, single point]",
CCC(CC)NC(=O)CSc1ccc(S(=O)(=O)N2CCCCC2)cn1,"inconclusive [inhibitor, single point]",
O=C(OCc1ccccc1)/C(=C(\O)c1ccccc1Br)c1ccc(-c2ccccc2)cn1,"inconclusive [inhibitor, partial curve]",
